# Data: PubChem BioAssay AID504332 (National Center for Advancing Translational Sciences (NCATS), 2011)
# In all, about 350,000 compounds went through this assay and about 31,000 (8.9%) were called active. Inconclusive results, whose numbers are uncertain, are shown with a selection of clear calls. Calls follow the shape of the dose curve; as a rule, active = well fitted inhibition curve with a large enough effect; inconclusive = small, poorly fitted or top-dose-only effect; inactive = no such curve, though single readings can be large or run the other way. Potencies beside an inconclusive call are fits to weak or partial responses and may not hold up.
# Target: Histone-lysine N-methyltransferase EHMT2 (Homo sapiens) (UniProt Q96KQ7)
# UniProt Q96KQ7, sequence (Q96KQ7 whole entry, looked up): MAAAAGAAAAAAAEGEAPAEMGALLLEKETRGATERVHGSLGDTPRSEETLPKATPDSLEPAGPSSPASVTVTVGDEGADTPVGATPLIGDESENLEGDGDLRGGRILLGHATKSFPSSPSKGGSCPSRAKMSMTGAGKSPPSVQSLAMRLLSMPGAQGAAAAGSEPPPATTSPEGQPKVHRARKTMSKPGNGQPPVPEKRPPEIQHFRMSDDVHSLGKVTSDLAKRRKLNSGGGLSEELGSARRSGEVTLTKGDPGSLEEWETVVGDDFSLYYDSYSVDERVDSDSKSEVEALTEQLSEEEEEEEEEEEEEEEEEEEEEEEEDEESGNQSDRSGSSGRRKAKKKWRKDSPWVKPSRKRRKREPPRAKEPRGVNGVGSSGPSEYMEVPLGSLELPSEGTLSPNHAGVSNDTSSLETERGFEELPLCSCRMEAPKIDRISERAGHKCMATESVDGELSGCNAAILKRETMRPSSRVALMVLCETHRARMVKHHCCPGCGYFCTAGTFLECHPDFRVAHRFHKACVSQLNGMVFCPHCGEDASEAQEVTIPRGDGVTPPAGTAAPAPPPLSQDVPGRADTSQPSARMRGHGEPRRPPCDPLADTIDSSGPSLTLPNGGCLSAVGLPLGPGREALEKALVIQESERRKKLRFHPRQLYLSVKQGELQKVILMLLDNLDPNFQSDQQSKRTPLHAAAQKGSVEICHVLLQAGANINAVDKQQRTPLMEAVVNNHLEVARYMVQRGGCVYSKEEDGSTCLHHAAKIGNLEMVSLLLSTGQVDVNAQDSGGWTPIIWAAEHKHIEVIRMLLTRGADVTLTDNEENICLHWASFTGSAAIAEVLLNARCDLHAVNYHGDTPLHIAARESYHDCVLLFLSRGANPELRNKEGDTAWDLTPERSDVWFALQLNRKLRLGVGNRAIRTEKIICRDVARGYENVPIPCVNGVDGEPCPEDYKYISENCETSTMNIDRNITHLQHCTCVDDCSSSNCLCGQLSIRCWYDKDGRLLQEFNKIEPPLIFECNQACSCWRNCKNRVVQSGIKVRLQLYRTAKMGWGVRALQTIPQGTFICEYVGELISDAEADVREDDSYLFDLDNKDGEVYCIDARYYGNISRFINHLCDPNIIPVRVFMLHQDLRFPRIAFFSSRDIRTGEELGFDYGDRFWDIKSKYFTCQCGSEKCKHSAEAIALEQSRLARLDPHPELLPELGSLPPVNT
# Assay: qHTS Assay for Inhibitors of Histone Lysine Methyltransferase G9a; also: nearly all actives have a fitted effect of over 75% in size
# Conditions: G9a H3K9 monomethylation, AlphaScreen, 2 h; activity, negative = inhibition: at 59 µM (top of the series) unless noted
# How it was run: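 Enzyme 20 nM + cpd, 15 min RT; add b-H3K9 pep 500 nM / SAM 20 uM; 2 h RT; anti-H3K9me1 Ab 0.5 ug/mL + SA donor / anti-rabbit acceptor beads 20 ug/mL each, 10 min; AlphaScreen read.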
# % is scaled to controls: 0 for no effect and ±100 for the full control effect; potency is read from the fitted curve at half-maximal effect; tags tell the direction and shape of the fitted curve.
Structure (SMILES),Potency,"activity, negative = inhibition"
Cc1ccc(C(C)C)c(OCCCN(C)Cc2ccccc2)c1,active: 10 µM,–
CCSc1ccc(-c2ccco2)nn1,active: 17.8 µM,–
CNc1nnc(-c2cccc(N(C)C)c2)s1,"inconclusive: 39.8 µM [inhibitor, single point]",–
CCCN1CCN(CC2=C(C(=O)OCC)C(c3ccc(Cl)cc3)NC(=O)N2)CC1 (stereo not drawn),–,inactive: -12.4%
COc1ccc(NC(=O)CCOc2ccc(C)cc2)cc1S(=O)(=O)N1CCCCC1,"inconclusive: 35.5 µM [inhibitor, single point]",–
COc1ccc(N2CCN(C(=O)c3cc(=O)c4ccc(C)cc4o3)CC2)cc1,–,inactive: 21.1% [at 0.501 µM]
COCCCNC(=O)/C(C#N)=C/c1cccc(NC(=O)c2ccccc2Cl)c1,–,inactive: -11.4%
Cc1ccc(S(=O)(=O)NNC(=O)c2ccncc2)cc1,–,inactive: -2.16% [at 102 µM]
COc1ccc(NC(=O)CCNC(=O)c2ccc([N+](=O)[O-])cc2)cc1S(=O)(=O)N1CCOCC1,"inconclusive: 0.562 µM [inhibitor, full curve, poor fit]",–
COc1cc(OC)cc(OC(=O)c2cccc(S(=O)(=O)N3CCN(C)CC3)c2)c1,"inconclusive: 11.2 µM [inhibitor, partial curve, poor fit]",–
Cc1ccccc1C(=O)NNc1ncnc2c1cnn2C,"inconclusive: 6.31 µM [inhibitor, single point]",–
CCCCNC(=O)CS(=O)Cc1nc(-c2cccc(C)c2)oc1C (stereo not drawn),"inconclusive: 79.4 µM [inhibitor, single point]",–
CCOC(=O)N1CCc2c(sc(NCc3ccc(OC)c(Br)c3)c2C(=O)Nc2cc(OC)ccc2OC)C1,active: 1.58 µM,–
CCOC(=O)CNC(=O)CNC(=O)c1ccc(OCC(C)C)cc1,"inconclusive: 39.8 µM [inhibitor, single point]",–
CCOc1ccc(C(NC(=O)/C=C/c2ccco2)c2ccc(OC)c(OC)c2)cc1 (stereo not drawn),active: 28.2 µM,–
O=C(CS(=O)(=O)c1ccccc1)Nc1nnc(C(F)(F)F)s1,"inconclusive: 89.1 µM [inhibitor, single point]",–
Cc1ccc(CNC(=O)c2c(-c3ccccc3F)noc2C)o1,–,inactive: -0.216%
CCc1nnc(N2C(=N)SCC2=O)s1,active: 28.2 µM,–
CC(CN1CCN(C)CC1)OC(=O)c1ccccc1Cl (stereo not drawn),active: 50.1 µM,–
O=C(CCl)N=c1sccn1Cc1ccc(Cl)cc1Cl,"inconclusive: 89.1 µM [inhibitor, partial curve, poor fit]",–
CCCN(CCO)C1CCN(CCc2ccccc2)CC1,active: 50.1 µM,–
COc1cc(C(=S)N2CCOCC2)ccc1OC(=O)c1cc([N+](=O)[O-])c(C)c([N+](=O)[O-])c1,"inconclusive: 39.8 µM [inhibitor, single point]",–
CCN(CC(=O)Nc1c(F)cccc1F)C(=O)C1CC1C (stereo not drawn),–,inactive: 9.76% [at 102 µM]
Cc1cc(C)n(-c2nc(SCC(=O)N3CCCC3)c3c4c(sc3n2)CCCC4)n1,"inconclusive: 70.8 µM [inhibitor, partial curve, poor fit]",–
CCC1=NN2C(=N)/C(=C\c3cccn3-c3ccc(C)c(C)c3)C(=O)N=C2S1,–,inactive: -33% [at 102 µM]

Structure (SMILES),Potency,"activity, negative = inhibition"
CC(C)(C)C(=O)NC(CC(=O)O)c1ccccc1 (stereo not drawn),active: 50.1 µM,–
Cc1nc(NC(=O)c2cccc(Cl)c2)sc1-c1csc(Nc2cccc(Cl)c2)n1,"inconclusive: 44.7 µM [inhibitor, partial curve, poor fit]",–
NC(=O)c1c(NC(=O)c2ccncc2)sc2c1CCCCCC2,–,inactive: -6.44% [at 102 µM]
COc1cc(/C=N\NC(=O)c2ccc(C)nc2)ccc1OC(=O)c1cccc(F)c1,"inconclusive: 79.4 µM [inhibitor, single point]",–
CCOc1ccc(NC(=O)CN(C)C(=O)CSc2ccccc2)cc1OCC,"inconclusive: 56.2 µM [inhibitor, partial curve, poor fit]",–
O=C(O)c1ccc2c(c1)S(=O)(=O)c1ccccc1C2=O,active: 44.7 µM,–
O=C(O)c1cccc(NC(=S)N/N=C/c2ccccc2OCc2cccc(Br)c2)c1,active: 44.7 µM,–
CCOC(=O)C1=C(c2ccccc2)NC(=O)NC1c1ccc(OCC#N)c(OC)c1 (stereo not drawn),"inconclusive: 79.4 µM [inhibitor, single point]",–
O=C1NC2(CCCCCC2)C(=O)N1Cc1ccccc1F,–,inactive: 30.5% [at 102 µM]
COc1cccc(/C=N/NC(=O)C(=O)N2CCCC2)c1OC,"inconclusive: 35.5 µM [inhibitor, single point]",–
CCOc1ccc(C(=O)C[n+]2ccc(C(=O)NCCO)cc2)cc1,–,inactive: -6.11% [at 102 µM]
Cc1cccc(OCC(=O)Nc2ccc(N3CCCC3)cc2)c1C,active: 28.2 µM,–
Cc1ccc(Cn2c(=O)n(Cc3ccccc3Cl)c(=O)c3cccnc32)cc1,–,inactive: -1.13%
O=c1c(-c2ccccc2)nc2cnc(Oc3cccc(Cl)c3)nc2n1C[C@H]1CCCO1,–,inactive: 2.51% [at 0.501 µM]
Cc1ccccc1SCC(=O)Nc1cc(C(F)(F)F)ccc1N1CCOCC1,–,inactive: 19.5% [at 102 µM]
CC(C)n1c(NCCc2ccccc2)nc2c1c(=O)n(C)c(=O)n2C,–,inactive: 13.4%
O=C(C1=C(O)C(=O)N(CC2CCCO2)C1c1cccc(O)c1)c1ccco1 (stereo not drawn),active: 44.7 µM,–
CC1CCN(C(=O)COC(=O)CCc2c[nH]c3ccccc23)CC1,–,inactive: 16.3% [at 102 µM]
O=C(Nc1ccc2c3c(cccc13)CC2)c1ccco1,"inconclusive: 79.4 µM [inhibitor, single point]",–
O=C(NCc1ccco1)C(c1ccc(F)cc1)N(Cc1cccnc1)C(=O)Cn1nnc2ccccc21 (stereo not drawn),"inconclusive: 89.1 µM [inhibitor, partial curve, poor fit]",–
CCc1ccc(C(=O)C(C)OC(=O)c2nc3nc(C)cc(C)n3n2)cc1 (stereo not drawn),"inconclusive: 44.7 µM [inhibitor, partial curve, poor fit]",–
COc1cccc(OCC(O)CN2CCN(c3ccc(F)cc3)CC2)c1 (stereo not drawn),–,inactive: -8.59% [at 2.33 µM]
CC1=C(C(=O)N(C)Cc2ccccc2)C2(CCC(C)CC2)OC1=O (stereo not drawn),"inconclusive: 39.8 µM [inhibitor, single point]",–
Cc1ccc(CNC(=O)c2cccc(Nc3nc4ccccc4n4nnnc34)c2)cc1,"inconclusive: 7.08 µM [inhibitor, single point]",–
Cc1cc(S(=O)(=O)N2CCCC2)ccc1OCC(=O)NCc1ccco1,"inconclusive: 0.501 µM [inhibitor, full curve]",–

Structure (SMILES),Potency,"activity, negative = inhibition"
CCOC(=O)CSc1nc(C)cc(C)n1,"inconclusive: 89.1 µM [inhibitor, single point]",–
CCOC(=O)C(=O)/C(=C\N(C)C)c1onc(-c2c(F)cccc2Cl)c1C(=O)OC,"inconclusive: 28.2 µM [inhibitor, partial curve, poor fit]",–
CCCCOC(=O)C1=C(C)Nc2ncnn2C1c1ccc(OC)c(OC)c1 (stereo not drawn),active: 50.1 µM,–
Cc1ccc(S(=O)(=O)N(C)C)cc1NC(=O)CCNC(=O)c1ccccc1Cl,"inconclusive: 89.1 µM [inhibitor, partial curve, poor fit]",–
Cc1nc(C)c(C(=O)NNC(=O)c2ccc(Br)cc2)s1,–,inactive: 24.2%
COc1ccc(N2CCN(C(=O)CCc3ccccc3)CC2)cc1,active: 31.6 µM,–
COC(=O)C1=C(C)OC(N)=C(C#N)C1c1ccccc1 (stereo not drawn),–,inactive: -4.94% [at 2.33 µM]
COc1ccccc1C1/C(=C(/O)c2ccc(C)cc2)C(=O)C(=O)N1Cc1ccco1 (stereo not drawn),–,inactive: -8.27%
c1ccc(-c2c(-c3ccccc3)n(Cc3ccco3)c3ncnc(NCCCn4ccnc4)c23)cc1,"inconclusive: 7.94 µM [inhibitor, partial curve, poor fit]",–
CCOC(=O)c1c(C)[nH]c(C(=O)NCc2ccco2)c1C,"inconclusive: 79.4 µM [inhibitor, partial curve, poor fit]",–
Cc1ccc(N2C(=O)C3CCCN3C2=S)cc1C (stereo not drawn),"inconclusive: 89.1 µM [inhibitor, single point]",–
CN(CCOCCOc1ccc(F)cc1)Cc1ccccc1,"inconclusive: 2.51 µM [inhibitor, partial curve, poor fit]",–
Cc1ccccc1C(=O)N1N=C(c2ccc(NS(C)(=O)=O)cc2)CC1c1cccs1 (stereo not drawn),"inconclusive: 79.4 µM [inhibitor, single point]",–
COc1cccc(/C=N/n2c(-c3cccs3)n[nH]c2=S)c1,"inconclusive: 1.41 µM [inhibitor, full curve, poor fit]",–
COCc1c(C(=O)N2CCN(Cc3nc4ccccc4s3)CC2)oc2ccccc12,"inconclusive: 0.282 µM [inhibitor, full curve, poor fit]",–
CCCCCCc1c(C)c2ccc(OCC(=O)N[C@@H](Cc3ccccc3)C(=O)O)cc2oc1=O,–,inactive: 19.8% [at 12.7 µM]
CCOc1cc(CNCc2ccncc2)cc(Br)c1OCc1ccc(F)cc1,–,inconclusive: -51.3% [inhibitor]
COc1ccc(C(=O)n2ncc(C#N)c2N)cc1,"inconclusive: 28.2 µM [inhibitor, partial curve, poor fit]",–
O=C(CNC(=O)[C@@H]1Cc2ccccc2CN1)Nc1ccc2c(c1)OCCO2,active: 39.8 µM,–
COc1cc(OC)c(C(=O)Oc2ccc3c(c2)OCO3)cc1OC,"inconclusive: 79.4 µM [inhibitor, single point]",–
CCOC(=O)/C=C/S(=O)(=O)c1ccc(NC(C)=O)cc1,active: 25.1 µM,–
CC1(C)CCC[C@@]2(C)CC=C(C(=O)O)[C@@H]3C[C@]312,–,inactive: 3.27% [at 12.7 µM]
COc1ccccc1C1/C(=C(/O)c2ccccc2)C(=O)C(=O)N1CCO (stereo not drawn),–,inactive: 32.1% [at 12.7 µM]
